# Results from the supplement of paper PMC8728848.
# This is one part of the list.
# B1: LecB PA14 (Pseudomonas aeruginosa) (protein)
# chain: MATQGVFTLPANTQFGVTAFANSAGTQTVNVQVNNETVATFTGQSTNNAIIGSKVLNSGGGGKVQILVSVNGRSSDLVSAQVILANELNFALVGSEDSTDNDYNDAVVVINWPLG
# How the values were obtained:
# Test in all cases: glycan array binding signal (z-score within array); higher = stronger binding
# Settings in all cases: glycan notation: IUPAC condensed, linker removed
# [1] = biological target: Gal(a1-3)Gal(b1-4)GlcNAc(b1-2)Man
# How it was run: (§1)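 Arrays were curated from the Consortium for Functional Glycomics database, 3228 in total, and kept only where the protein sequence was available. Binding is expressed as a within-array Z-score. This score was averaged across arrays of the same protein sequence at different concentrations or buffers and across linkers, and negative values can be read as non-binding.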
# [2] = biological target: Gal(a1-3)Gal(b1-4)GlcNAc(b1-2)Man(a1-3)[Gal(a1-3)Gal(b1-4)GlcNAc(b1-2)Man(a1-6)]Man(b1-4)GlcNAc(b1-4)GlcNAc
# How it was run: as §1
# [3] = biological target: Gal(a1-3)Gal(b1-4)GlcNAc(b1-3)GalNAc
# How it was run: as §1
# [4] = biological target: Gal(a1-3)Gal(b1-4)GlcNAc(b1-6)GalNAc
# How it was run: as §1
# [5] = biological target: Gal(a1-3)Gal(b1-4)[Fuc(a1-3)]GlcNAc
# How it was run: as §1
# [6] = biological target: Gal(a1-3)Gal(b1-4)[Fuc(a1-3)]GlcNAc(b1-2)Man(a1-3)[Gal(a1-3)Gal(b1-4)[Fuc(a1-3)]GlcNAc(b1-2)Man(a1-6)]Man(b1-4)GlcNAc(b1-4)GlcNAc
# How it was run: as §1
# [7] = biological target: Gal(a1-3)GalNAc
# How it was run: as §1
# [8] = biological target: Gal(a1-3)[Gal(a1-4)]Gal(b1-4)GlcNAc
# How it was run: as §1
# [9] = biological target: Gal(a1-4)Gal(b1-3)GlcNAc(b1-2)Man(a1-3)[Gal(a1-4)Gal(b1-3)GlcNAc(b1-2)Man(a1-6)]Man(b1-4)GlcNAc(b1-4)GlcNAc
# How it was run: as §1
# [10] = biological target: Gal(a1-4)Gal(b1-4)Glc
# How it was run: as §1
# [11] = biological target: Gal(a1-4)Gal(b1-4)GlcNAc
# How it was run: as §1
# [12] = biological target: Gal(a1-4)Gal(b1-4)GlcNAc(b1-2)Man(a1-3)[Gal(a1-4)Gal(b1-4)GlcNAc(b1-2)Man(a1-6)]Man(b1-4)GlcNAc(b1-4)GlcNAc
# How it was run: as §1
# [13] = biological target: Gal(a1-4)Gal(b1-4)GlcNAc(b1-3)Gal(b1-4)Glc
# How it was run: as §1
# [14] = biological target: Gal(a1-4)GlcNAc
# How it was run: as §1
# [15] = biological target: Gal(a1-6)Glc
# How it was run: as §1
# [16] = biological target: Gal(b1-2)Gal
# How it was run: as §1
# [17] = biological target: Gal(b1-3)Gal
# How it was run: as §1
# [18] = biological target: Gal(b1-3)Gal(b1-4)GlcNAc
# How it was run: as §1
# [19] = biological target: Gal(b1-3)GalNAc
# How it was run: as §1
# [20] = biological target: Gal(b1-3)GalNAc(a1-3)[Fuc(a1-2)]Gal(b1-4)Glc
# How it was run: as §1
# [21] = biological target: Gal(b1-3)GalNAc(a1-3)[Fuc(a1-2)]Gal(b1-4)GlcNAc
# How it was run: as §1
# [22] = biological target: Gal(b1-3)GalNAc(b1-3)Gal
# How it was run: as §1
# [23] = biological target: Gal(b1-3)GalNAc(b1-3)Gal(a1-4)Gal(b1-4)Glc
# How it was run: as §1
# [24] = biological target: Gal(b1-3)GalNAc(b1-4)Gal(b1-4)Glc
# How it was run: as §1
# [25] = biological target: Gal(b1-3)GalNAc(b1-4)[Neu5Ac(a2-3)]Gal(b1-4)Glc
# How it was run: as §1
# [26] = biological target: Gal(b1-3)GlcNAc
# How it was run: as §1
# [27] = biological target: Gal(b1-3)GlcNAc(a1-3)Gal(b1-4)GlcNAc
# How it was run: as §1
# [28] = biological target: Gal(b1-3)GlcNAc(a1-6)Gal(b1-4)GlcNAc
# How it was run: as §1
# [29] = biological target: Gal(b1-3)GlcNAc(b1-2)Man
# How it was run: as §1
# [30] = biological target: Gal(b1-3)GlcNAc(b1-2)Man(a1-3)[Gal(b1-3)GlcNAc(b1-2)Man(a1-6)]Man(b1-4)GlcNAc(b1-4)GlcNAc
# How it was run: as §1
# [31] = biological target: Gal(b1-3)GlcNAc(b1-2)Man(a1-3)[Gal(b1-3)GlcNAc(b1-2)Man(a1-6)]Man(b1-4)GlcNAc(b1-4)[Fuc(a1-6)]GlcNAc
# How it was run: as §1
# [32] = biological target: Gal(b1-3)GlcNAc(b1-2)Man(a1-3)[GlcNAc(b1-4)][Gal(b1-3)GlcNAc(b1-2)Man(a1-6)]Man(b1-4)GlcNAc(b1-4)GlcNAc
# How it was run: as §1
# [33] = biological target: Gal(b1-3)GlcNAc(b1-2)[Gal(b1-3)GlcNAc(b1-6)]Man(a1-6)[Gal(b1-3)GlcNAc(b1-2)Man(a1-3)]Man(b1-4)GlcNAc(b1-4)GlcNAc
# How it was run: as §1
# [34] = biological target: Gal(b1-3)GlcNAc(b1-3)Gal(b1-3)GlcNAc
# How it was run: as §1
# [35] = biological target: Gal(b1-3)GlcNAc(b1-3)Gal(b1-4)Glc
# How it was run: as §1
# [36] = biological target: Gal(b1-3)GlcNAc(b1-3)Gal(b1-4)GlcNAc
# How it was run: as §1
# [37] = biological target: Gal(b1-3)GlcNAc(b1-3)Gal(b1-4)GlcNAc(b1-2)Man(a1-3)[Gal(b1-3)GlcNAc(b1-3)Gal(b1-4)GlcNAc(b1-2)Man(a1-6)]Man(b1-4)GlcNAc(b1-4)GlcNAc
# How it was run: as §1
# [38] = biological target: Gal(b1-3)GlcNAc(b1-3)Gal(b1-4)GlcNAc(b1-2)[Gal(b1-3)GlcNAc(b1-3)Gal(b1-4)GlcNAc(b1-6)]Man(a1-6)[Gal(b1-3)GlcNAc(b1-3)Gal(b1-4)GlcNAc(b1-2)Man(a1-3)]Man(b1-4)GlcNAc(b1-4)[Fuc(a1-6)]GlcNAc
# How it was run: as §1
# [39] = biological target: Gal(b1-3)GlcNAc(b1-3)Gal(b1-4)GlcNAc(b1-3)Gal(b1-4)GlcNAc(b1-2)[Gal(b1-3)GlcNAc(b1-3)Gal(b1-4)GlcNAc(b1-3)Gal(b1-4)GlcNAc(b1-6)]Man(a1-6)[Gal(b1-3)GlcNAc(b1-3)Gal(b1-4)GlcNAc(b1-3)Gal(b1-4)GlcNAc(b1-2)Man(a1-3)]Man(b1-4)GlcNAc(b1-4)[Fuc(a1-6)]GlcNAc
# How it was run: as §1
# [40] = biological target: Gal(b1-3)GlcNAc(b1-3)Gal(b1-4)GlcNAc(b1-6)[Gal(b1-3)GlcNAc(b1-3)]Gal(b1-4)Glc
# How it was run: as §1
# [41] = biological target: Gal(b1-3)GlcNAc(b1-3)Gal(b1-4)[Fuc(a1-3)]GlcNAc
# How it was run: as §1
# [42] = biological target: Gal(b1-3)GlcNAc(b1-3)Gal(b1-4)[Fuc(a1-3)]GlcNAc(b1-6)[Gal(b1-3)GlcNAc(b1-3)]Gal(b1-4)Glc
# How it was run: as §1
# [43] = biological target: Gal(b1-3)GlcNAc(b1-3)GalNAc
# How it was run: as §1
# [44] = biological target: Gal(b1-3)GlcNAc(b1-6)Gal(b1-4)GlcNAc
# How it was run: as §1
# [45] = biological target: Gal(b1-3)GlcNAc(b1-6)GalNAc
# How it was run: as §1
binder,measurement,setting,value
B1,glycan array binding signal (z-score),[1],-0.746
same,glycan array binding signal (z-score),[2],-0.446
same,glycan array binding signal (z-score),[3],-0.61
same,glycan array binding signal (z-score),[4],-0.532
same,glycan array binding signal (z-score),[5],0.859
same,glycan array binding signal (z-score),[6],0.183
same,glycan array binding signal (z-score),[7],-0.581
same,glycan array binding signal (z-score),[8],0.434
same,glycan array binding signal (z-score),[9],-0.397
same,glycan array binding signal (z-score),[10],-0.633
same,glycan array binding signal (z-score),[11],-0.113
same,glycan array binding signal (z-score),[12],-0.292
same,glycan array binding signal (z-score),[13],0.061
same,glycan array binding signal (z-score),[14],-0.949
same,glycan array binding signal (z-score),[15],-0.62
same,glycan array binding signal (z-score),[16],-0.748
same,glycan array binding signal (z-score),[17],-0.06
same,glycan array binding signal (z-score),[18],-0.517
same,glycan array binding signal (z-score),[19],-0.109
same,glycan array binding signal (z-score),[20],-0.227
same,glycan array binding signal (z-score),[21],-0.64
same,glycan array binding signal (z-score),[22],-0.007
same,glycan array binding signal (z-score),[23],-0.411
same,glycan array binding signal (z-score),[24],-0.558
same,glycan array binding signal (z-score),[25],-0.21
same,glycan array binding signal (z-score),[26],-0.781
same,glycan array binding signal (z-score),[27],0.132
same,glycan array binding signal (z-score),[28],-0.617
same,glycan array binding signal (z-score),[29],0.53
same,glycan array binding signal (z-score),[30],-0.37
same,glycan array binding signal (z-score),[31],0.647
same,glycan array binding signal (z-score),[32],0.447
same,glycan array binding signal (z-score),[33],0.307
same,glycan array binding signal (z-score),[34],0.494
same,glycan array binding signal (z-score),[35],-0.401
same,glycan array binding signal (z-score),[36],-0.628
same,glycan array binding signal (z-score),[37],0.146
same,glycan array binding signal (z-score),[38],0.648
same,glycan array binding signal (z-score),[39],1.51
same,glycan array binding signal (z-score),[40],-0.714
same,glycan array binding signal (z-score),[41],0.06
same,glycan array binding signal (z-score),[42],-0.406
same,glycan array binding signal (z-score),[43],-0.818
same,glycan array binding signal (z-score),[44],-0.708
same,glycan array binding signal (z-score),[45],-0.107
